In the antibiotic and cytotoxicity screens of Wong et al. (2023):
Some of the results follow.

What was measured:
[1] = tested on: HSkMC (human skeletal muscle cells); test: cytotoxicity call (relative viability < 0.9); conditions: 10 µM
[2] = tested on: HepG2; test: cytotoxicity call (relative viability < 0.9); conditions: 10 µM
[3] = tested on: S. aureus RN4220; test: growth inhibition call (relative growth <= 0.2); conditions: 50 µM

Structure (SMILES)	cytotoxicity call [1]	cytotoxicity call [2]	growth inhibition call [3]
C[N+](C)(C)CCCCCCNC(=O)[C@H]1C[C@H]2C(=O)N3CCC[C@H]3C(=O)N2[C@H]1c1cccc(OCCO)c1	inactive	inactive	inactive
COc1ccc2c3c([nH]c2c1)[C@H](CO)N(C[C@]13CCN(CC1)Cc1nccs1)C(=O)C1CCOCC1	inactive	inactive	inactive
C[C@H]1CCCCO[C@H](CN(C)C(=O)Nc2cccc3ccccc23)[C@@H](C)CN([C@@H](C)CO)C(=O)c2cc(NS(=O)(=O)c3cn(C)cn3)ccc2O1	inactive	inactive	inactive
CCCNC(=O)N1C[C@H](C)[C@@H](OC)CN(C)C(=O)c2cc(NS(=O)(=O)CC(F)(F)F)ccc2OC[C@H]1C	inactive	inactive	inactive
COc1cc(OC)cc(-c2ccc([C@H]3CC(=O)C[C@@H](c4ccccc4)C34C(=O)c3ccccc3C4=O)cc2)c1	inactive	inactive	active
C[C@H]1CN([C@@H](C)CO)C(=O)c2c(c3ccccc3n2C)-c2ccccc2CO[C@H]1CN(C)Cc1cccc(F)c1	inactive	inactive	inactive
O=C(NO)c1cn(-c2ccc(C[C@H]3C(=O)O[C@@H](Cc4ccccc4)[C@H]4C=C(/C=C/C5CC5)CN43)cc2)nn1	inactive	inactive	inactive
COCC(=O)N1[C@H](C(=O)N2CCOCC2)[C@@H](CO)[C@@H]2Cn3c(ccc(C4=CCCCC4)c3=O)[C@@H]21	inactive	inactive	inactive
CCS(=O)(=O)N(C)C[C@@H]1OCc2ccccc2-c2c(n(C)c3ccccc23)C(=O)N([C@H](C)CO)C[C@@H]1C	inactive	inactive	inactive
